# Experimental data published in the supplement of paper PMC8728848.
# Some of the results follow.
# Tests used:
# Assay in all cases: glycan array binding signal (z-score within array); higher = stronger binding
# Conditions in all cases: glycan notation: IUPAC condensed, linker removed
# [1] = biological target: Gal(b1-4)GlcNAc(b1-3)Gal(b1-4)GlcNAc(b1-3)[Gal(b1-4)GlcNAc(b1-3)Gal(b1-4)GlcNAc(b1-6)]GalNAc
# How it was run: (§1)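 From the Consortium for Functional Glycomics database, 3228 arrays were curated, keeping only those whose protein sequence was available. Binding is given as a within-array Z-score averaged across arrays sharing a protein sequence and across linkers. Negative Z-scores can be read as non-binding.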
# [2] = biological target: Gal(b1-4)GlcNAc(b1-3)Gal(b1-4)GlcNAc(b1-6)[Gal(b1-3)]GalNAc
# How it was run: as §1
# [3] = biological target: Gal(b1-4)GlcNAc(b1-3)Gal(b1-4)[Fuc(a1-3)]GlcNAc(b1-3)Gal(b1-4)[Fuc(a1-3)]GlcNAc
# How it was run: as §1
# [4] = biological target: Gal(b1-4)GlcNAc(b1-3)GalNAc
# How it was run: as §1
# [5] = biological target: Gal(b1-4)GlcNAc(b1-3)[Fuc(a1-3)GlcNAc(b1-6)]Gal(b1-4)Glc
# How it was run: as §1
# [6] = biological target: Gal(b1-4)GlcNAc(b1-3)[Gal(b1-4)GlcNAc(b1-6)]Gal(b1-4)GlcNAc
# How it was run: as §1
# [7] = biological target: Gal(b1-4)GlcNAc(b1-3)[GlcNAc(b1-6)]Gal(b1-4)GlcNAc
# How it was run: as §1
# [8] = biological target: Gal(b1-4)GlcNAc(b1-6)Gal(b1-4)GlcNAc
# How it was run: as §1
# [9] = biological target: Gal(b1-4)GlcNAc(b1-6)GalNAc
# How it was run: as §1
# [10] = biological target: Gal(b1-4)GlcNAc(b1-6)[Gal(b1-3)]GalNAc
# How it was run: as §1
# [11] = biological target: Gal(b1-4)GlcNAc(b1-6)[Gal(b1-4)GlcNAc(b1-3)]GalNAc
# How it was run: as §1
# Gal(b1-4)GlcNAc6P = biological target: Gal(b1-4)GlcNAc6P
# How it was run: as §1
# Gal(b1-6)Gal = biological target: Gal(b1-6)Gal
# How it was run: as §1
# Gal3S(b1-3)GalNAc = biological target: Gal3S(b1-3)GalNAc
# How it was run: as §1
# Gal3S(b1-3)GlcNAc = biological target: Gal3S(b1-3)GlcNAc
# How it was run: as §1
# [12] = biological target: Gal3S(b1-3)[Fuc(a1-4)]GlcNAc
# How it was run: as §1
# Gal3S(b1-4)Glc = biological target: Gal3S(b1-4)Glc
# How it was run: as §1
# Gal3S(b1-4)Glc6S = biological target: Gal3S(b1-4)Glc6S
# How it was run: as §1
# Gal3S(b1-4)GlcNAc = biological target: Gal3S(b1-4)GlcNAc
# How it was run: as §1
# [13] = biological target: Gal3S(b1-4)[Fuc(a1-3)]Glc6S
# How it was run: as §1
# [14] = biological target: Gal3S(b1-4)[Fuc(a1-3)]GlcNAc
# How it was run: as §1
# [15] = biological target: Gal3S(b1-4)[Fuc(a1-3)]GlcNAc6S
# How it was run: as §1
# Gal3S4S(b1-4)GlcNAc = biological target: Gal3S4S(b1-4)GlcNAc
# How it was run: as §1
# Gal3S6S(b1-4)GlcNAc = biological target: Gal3S6S(b1-4)GlcNAc
# How it was run: as §1
# Gal3S6S(b1-4)GlcNAc6S = biological target: Gal3S6S(b1-4)GlcNAc6S
# How it was run: as §1
# Gal4S(b1-4)GlcNAc = biological target: Gal4S(b1-4)GlcNAc
# How it was run: as §1
# Gal4S6S(b1-4)GlcNAc = biological target: Gal4S6S(b1-4)GlcNAc
# How it was run: as §1
# Gal6P(b1-4)GlcNAc = biological target: Gal6P(b1-4)GlcNAc
# How it was run: as §1
# Gal6S(b1-3)GlcNAc = biological target: Gal6S(b1-3)GlcNAc
# How it was run: as §1
# Gal6S(b1-3)GlcNAc6S = biological target: Gal6S(b1-3)GlcNAc6S
# How it was run: as §1
# Gal6S(b1-4)Glc = biological target: Gal6S(b1-4)Glc
# How it was run: as §1
# Gal6S(b1-4)Glc6S = biological target: Gal6S(b1-4)Glc6S
# How it was run: as §1
# Gal6S(b1-4)GlcNAc = biological target: Gal6S(b1-4)GlcNAc
# How it was run: as §1
# Gal6S(b1-4)GlcNAc6S = biological target: Gal6S(b1-4)GlcNAc6S
# How it was run: as §1
# GalNAc(a1-3)Gal = biological target: GalNAc(a1-3)Gal
# How it was run: as §1
# GalNAc(a1-3)GalNAc = biological target: GalNAc(a1-3)GalNAc
# How it was run: as §1
# [16] = biological target: GalNAc(a1-3)GalNAc(b1-3)Gal(a1-4)Gal(b1-4)Glc
# How it was run: as §1
# [17] = biological target: GalNAc(a1-3)GalNAc(b1-3)Gal(a1-4)Gal(b1-4)GlcNAc
# How it was run: as §1
# GalNAc(b1-3)Gal = biological target: GalNAc(b1-3)Gal
# How it was run: as §1
# [18] = biological target: GalNAc(b1-3)Gal(a1-4)Gal(b1-4)GlcNAc
# How it was run: as §1
# [19] = biological target: GalNAc(b1-3)Gal(a1-4)Gal(b1-4)GlcNAc(b1-3)Gal(b1-4)Glc
# How it was run: as §1
# [20] = biological target: GalNAc(b1-3)Gal(a1-6)Gal(b1-4)Glc
# How it was run: as §1
# GalNAc(b1-3)GalNAc = biological target: GalNAc(b1-3)GalNAc
# How it was run: as §1
# GalNAc(b1-3)GlcNAc = biological target: GalNAc(b1-3)GlcNAc
# How it was run: as §1
# GalNAc(b1-4)Gal(b1-4)Glc = biological target: GalNAc(b1-4)Gal(b1-4)Glc
# How it was run: as §1
binder,measurement,setting,value
APVPVTKLVCDGDTYKCTAYLDFGDGRWVAQWDTNVFHTG [PhoSpL (Pholiota squarrosa)],glycan array binding signal (z-score),[1],0.619
same,glycan array binding signal (z-score),[2],0.549
same,glycan array binding signal (z-score),[3],-0.394
same,glycan array binding signal (z-score),[4],-0.135
same,glycan array binding signal (z-score),[5],-0.241
same,glycan array binding signal (z-score),[6],-0.284
same,glycan array binding signal (z-score),[7],0.477
same,glycan array binding signal (z-score),[8],-0.064
same,glycan array binding signal (z-score),[9],-0.065
same,glycan array binding signal (z-score),[10],-0.398
same,glycan array binding signal (z-score),[11],-0.473
same,glycan array binding signal (z-score),Gal(b1-4)GlcNAc6P,-0.747
same,glycan array binding signal (z-score),Gal(b1-6)Gal,-0.217
same,glycan array binding signal (z-score),Gal3S(b1-3)GalNAc,-0.131
same,glycan array binding signal (z-score),Gal3S(b1-3)GlcNAc,0.237
same,glycan array binding signal (z-score),[12],-0.222
same,glycan array binding signal (z-score),Gal3S(b1-4)Glc,0.256
same,glycan array binding signal (z-score),Gal3S(b1-4)Glc6S,-0.159
same,glycan array binding signal (z-score),Gal3S(b1-4)GlcNAc,0.134
same,glycan array binding signal (z-score),[13],0.256
same,glycan array binding signal (z-score),[14],0.145
same,glycan array binding signal (z-score),[15],0.305
same,glycan array binding signal (z-score),Gal3S4S(b1-4)GlcNAc,-0.026
same,glycan array binding signal (z-score),Gal3S6S(b1-4)GlcNAc,0.482
same,glycan array binding signal (z-score),Gal3S6S(b1-4)GlcNAc6S,0.329
same,glycan array binding signal (z-score),Gal4S(b1-4)GlcNAc,-0.422
same,glycan array binding signal (z-score),Gal4S6S(b1-4)GlcNAc,-0.269
same,glycan array binding signal (z-score),Gal6P(b1-4)GlcNAc,0.354
same,glycan array binding signal (z-score),Gal6S(b1-3)GlcNAc,-0.149
same,glycan array binding signal (z-score),Gal6S(b1-3)GlcNAc6S,0.396
same,glycan array binding signal (z-score),Gal6S(b1-4)Glc,-0.227
same,glycan array binding signal (z-score),Gal6S(b1-4)Glc6S,-0.687
same,glycan array binding signal (z-score),Gal6S(b1-4)GlcNAc,0.078
same,glycan array binding signal (z-score),Gal6S(b1-4)GlcNAc6S,-0.652
same,glycan array binding signal (z-score),GalNAc(a1-3)Gal,0.154
same,glycan array binding signal (z-score),GalNAc(a1-3)GalNAc,0.004
same,glycan array binding signal (z-score),[16],-0.618
same,glycan array binding signal (z-score),[17],0.539
same,glycan array binding signal (z-score),GalNAc(b1-3)Gal,-0.301
same,glycan array binding signal (z-score),[18],0.249
same,glycan array binding signal (z-score),[19],0.204
same,glycan array binding signal (z-score),[20],-0.18
same,glycan array binding signal (z-score),GalNAc(b1-3)GalNAc,0.085
same,glycan array binding signal (z-score),GalNAc(b1-3)GlcNAc,-0.197
same,glycan array binding signal (z-score),GalNAc(b1-4)Gal(b1-4)Glc,-0.088
